Each structure is given as a SMILES string. Screen size: about 310,000 compounds; about 14,000 (4.5%) showed an effect of 50% or more. Effects have a minus sign here. The list shows a part of the results. Where a SMILES comes first, the peptide text is derived from it. [ ]: non-standard residue; d: D form. The star is where a group is joined. ξ: configuration not given here. ξY = NC(Cc1ccc(O)cc1)C(=O)O; Cbz = O=C(OCc1ccccc1)*; OtBu = CC(C)(C)O*; tBu = CC(C)(C)*
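Further: peak tail current of the secondary pulse compared with the same well before compound.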

For this test, the target named is human ether-à-go-go-related gene (hERG) potassium channel (human, UniProt Q12809). The experiment in a line: primary screen, population patch clamp on CHO cells stably expressing hERG.
human ether-à-go-go-related gene (hERG) potassium channel, sequence (Q12809 whole entry, looked up): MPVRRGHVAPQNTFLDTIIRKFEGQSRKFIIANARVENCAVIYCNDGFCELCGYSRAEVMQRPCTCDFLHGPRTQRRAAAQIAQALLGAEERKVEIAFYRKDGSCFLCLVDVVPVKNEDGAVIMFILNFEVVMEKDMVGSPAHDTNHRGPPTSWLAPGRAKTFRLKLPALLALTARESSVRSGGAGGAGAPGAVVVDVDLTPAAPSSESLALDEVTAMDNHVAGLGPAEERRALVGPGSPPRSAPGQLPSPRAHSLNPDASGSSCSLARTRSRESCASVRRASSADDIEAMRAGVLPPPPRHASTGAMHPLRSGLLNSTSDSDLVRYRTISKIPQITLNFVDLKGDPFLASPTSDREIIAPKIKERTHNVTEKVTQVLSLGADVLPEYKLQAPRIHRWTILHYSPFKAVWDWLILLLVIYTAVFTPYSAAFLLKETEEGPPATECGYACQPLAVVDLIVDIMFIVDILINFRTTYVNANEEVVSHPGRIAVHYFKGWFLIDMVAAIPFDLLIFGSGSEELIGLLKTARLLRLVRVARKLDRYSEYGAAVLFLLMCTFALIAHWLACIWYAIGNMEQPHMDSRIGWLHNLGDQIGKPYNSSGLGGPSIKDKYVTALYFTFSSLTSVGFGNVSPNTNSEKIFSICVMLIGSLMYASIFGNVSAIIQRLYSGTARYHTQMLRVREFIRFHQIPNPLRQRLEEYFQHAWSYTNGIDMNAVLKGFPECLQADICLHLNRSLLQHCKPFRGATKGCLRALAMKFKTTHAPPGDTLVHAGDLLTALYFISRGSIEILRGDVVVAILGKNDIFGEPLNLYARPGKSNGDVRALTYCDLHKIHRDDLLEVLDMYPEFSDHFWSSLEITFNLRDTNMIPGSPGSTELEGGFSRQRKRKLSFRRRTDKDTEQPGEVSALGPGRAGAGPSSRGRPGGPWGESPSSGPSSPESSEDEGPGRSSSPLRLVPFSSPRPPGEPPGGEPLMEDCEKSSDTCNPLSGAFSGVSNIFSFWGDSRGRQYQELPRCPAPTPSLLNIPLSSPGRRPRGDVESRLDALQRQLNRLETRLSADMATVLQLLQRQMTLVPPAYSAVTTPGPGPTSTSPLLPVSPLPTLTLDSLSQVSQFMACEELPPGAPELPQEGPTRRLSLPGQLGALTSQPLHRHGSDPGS
On to `CCCOc1cc2c(C#N)c(N3CCCC3)nc(N)c2c(N)n1`, for which the “hERG current change (%, negative = inhibition) at 10uM” value is reported as 22%.

As to `CN(CC(=O)Nc1ccc2c(c1)OCCO2)S(=O)(=O)c1cccc2cccnc12`, the “hERG current change (%, negative = inhibition) at 10uM” value came to 1.37%.

For `O=C(CN(Cc1ccccc1)S(=O)(=O)c1ccccc1)N/N=C/c1ccccc1C(=O)O`, the “hERG current change (%, negative = inhibition) at 10uM” value turned out to be 1.91%.

Regarding `O=C(OCC(=O)c1ccc[nH]1)C1=COCCO1`, the “hERG current change (%, negative = inhibition) at 10uM” value is 5.01%.

On to `CCC(CC)c1nnc(NC(=O)C2CC(=O)N(CCc3ccc(OC)c(OC)c3)C2)s1` (stereo not drawn), for which the “hERG current change (%, negative = inhibition) at 10uM” value was -0.537%.

On to `Cc1ccc(NC(=O)Nc2cc(S(C)(=O)=O)ccc2Cl)cc1`, for which the “hERG current change (%, negative = inhibition) at 10uM” value is -2.55%.

For `COc1ccc(CC(=O)Nc2ccc(N3CCCC3)c(C)c2)cc1`, the “hERG current change (%, negative = inhibition) at 10uM” value worked out at 5.59%.

As for `CC(C)NC(=O)c1ccc(OC2CSC2)cc1`, the “hERG current change (%, negative = inhibition) at 10uM” value is reported as -8.57%.

In the case of `O=C(NCCO)c1cc2cc(Cl)cc(Cl)c2oc1=O`, the “hERG current change (%, negative = inhibition) at 10uM” value was -3.65%.

As to `C/C(=N\NC(=O)c1nn(C)cc1Br)c1cccc(NC(=O)c2ccncc2)c1`, the “hERG current change (%, negative = inhibition) at 10uM” value is listed as -1.29%.

As to `CCc1cccc2c(C(=O)COC(=O)c3nccnc3N)c[nH]c12`, the “hERG current change (%, negative = inhibition) at 10uM” value is -5.69%.

For `Cc1c(C(=O)OC2CCCC2)[nH]c2c1C(=O)CC(c1ccco1)C2` (stereo not drawn), the “hERG current change (%, negative = inhibition) at 10uM” value turned out to be 8.95%.

As for `O=C(c1ccco1)N1CCN(C(=O)c2ccc(CS(=O)c3ccc(F)cc3)o2)CC1` (stereo not drawn), the “hERG current change (%, negative = inhibition) at 10uM” value amounted to 11.8%.

As to `COc1cc(NC(=O)c2cc(-c3cccnc3)nc3ccc(C)cc23)c(OC)cc1Cl`, the “hERG current change (%, negative = inhibition) at 10uM” value is listed as 0.136%.

Regarding `CC(C)(Oc1ccc(Cl)cc1)C(=O)NCc1ccco1`, the “hERG current change (%, negative = inhibition) at 10uM” value amounted to 2.22%.

With `CCC(C)NC(=O)C1CCN(C(=O)N(C)C)CC1` (stereo not drawn), the “hERG current change (%, negative = inhibition) at 10uM” value worked out at 9.88%.

As for `CCCSc1nnc(Sc2nnnn2-c2ccccc2)s1`, the “hERG current change (%, negative = inhibition) at 10uM” value is given as -16.7%.

For the molecule `CCCOC(=O)Nc1ccc(C(N)=O)cc1`, the “hERG current change (%, negative = inhibition) at 10uM” value worked out at 1.57%.

With `COC(=O)CCCC(=O)N1CCCC(C(=O)c2ccccc2SC)C1` (stereo not drawn), the “hERG current change (%, negative = inhibition) at 10uM” value is listed as -8.08%.

`Cc1nc(S(=O)(=O)NC2CCCCC2)c(C#N)c(C)c1Cl`: the “hERG current change (%, negative = inhibition) at 10uM” value is -18.1%.

For `CC(C)c1nnc(NC(=O)c2cnccn2)s1`, the “hERG current change (%, negative = inhibition) at 10uM” value stood at 16.2%.

Regarding `N#Cc1cccnc1N1CCN(C(=O)c2ccccc2)CC1`, the “hERG current change (%, negative = inhibition) at 10uM” value was 19.5%.

Regarding `CCC(C)NC(=O)CSc1nnc(-c2ccncc2)n1-c1ccc(OC)cc1` (stereo not drawn), the “hERG current change (%, negative = inhibition) at 10uM” value was -0.947%.

For the molecule `CC(C)OC(=O)c1ccc(OC(=O)c2cccnc2)cc1`, the “hERG current change (%, negative = inhibition) at 10uM” value is 12.5%.

Turning to `COc1ccc(/C=N/NC(=O)C[n+]2ccccc2)c(OC)c1OC.[Cl-]`, the “hERG current change (%, negative = inhibition) at 10uM” value is -0.0621%.

With `CCOC(=O)C1C(=O)NC(N2CCN(c3ccccc3)CC2)=NC1c1ccccc1` (stereo not drawn), the “hERG current change (%, negative = inhibition) at 10uM” value is on record as -6.12%.

Consider `N#Cc1sc2nc(C3CC3)cc(-c3ccc(Cl)cc3)c2c1N`, for which the “hERG current change (%, negative = inhibition) at 10uM” value came to 6.54%.

Take `CC(C)(C)OC(=O)C(Cc1ccc(OC(C)(C)C)cc1)NC(=O)CNC(=O)OCc1ccccc1` (stereo not drawn) (Cbz-Gly-[ξY](tBu)-OtBu): the “hERG current change (%, negative = inhibition) at 10uM” value is on record as -34%.

Turning to `Cc1cccc(N2C(S)=C(C#N)C(=O)NC23CCCCC3)c1`, the “hERG current change (%, negative = inhibition) at 10uM” value is recorded as -7.13%.

`O=c1[nH]ncn1-c1cccc(C(F)(F)F)c1`: the “hERG current change (%, negative = inhibition) at 10uM” value came to 10.8%.

On to `O=C(NC(=S)NCCc1ccccc1)c1ccccc1`, for which the “hERG current change (%, negative = inhibition) at 10uM” value came out at 4.4%.

For `N#CC1=C(N)OC2=C(C(=O)CCC2)C1c1ccccc1` (stereo not drawn), the “hERG current change (%, negative = inhibition) at 10uM” value was -11.9%.

In the case of `COc1ccccc1NS(=O)(=O)c1cc(C(=O)N2CCCC2)ccc1C`, the “hERG current change (%, negative = inhibition) at 10uM” value is reported as -9.55%.

`Cc1nc2ccccc2n1CC(O)Cn1c2ccccc2c2ccccc21` (stereo not drawn): the “hERG current change (%, negative = inhibition) at 10uM” value is on record as -9.05%.

`CC(C)(C)C(=O)N(Cc1ccc(Cl)cc1)Cc1cccnc1`: the “hERG current change (%, negative = inhibition) at 10uM” value is on record as -17.3%.

`O=C(O)[C@H](Cc1ccccc1)NC(=O)N1CCCCCC1`: the “hERG current change (%, negative = inhibition) at 10uM” value was found to be 10.8%.

In the case of `Cc1cccc(Nc2ncc3c(n2)CC(c2ccco2)CC3=O)c1` (stereo not drawn), the “hERG current change (%, negative = inhibition) at 10uM” value worked out at 1.2%.

As for `CC(C)(C)n1nc2c(c1NC(=O)c1ccc(Cl)c([N+](=O)[O-])c1)CS(=O)(=O)C2`, the “hERG current change (%, negative = inhibition) at 10uM” value is given as -6.16%.

As to `CN(C)C(=O)Oc1cccc2c(OC(=O)N(C)C)cccc12`, the “hERG current change (%, negative = inhibition) at 10uM” value was found to be 3.41%.

Take `COc1ccc(NC(=O)c2ccc(S(=O)(=O)N3CCCC3)cc2)cc1OC`: the “hERG current change (%, negative = inhibition) at 10uM” value is recorded as -158%.

`COC(=O)c1ccccc1NC(=O)CSc1nnc(-c2cccnc2)n1C`: the “hERG current change (%, negative = inhibition) at 10uM” value is recorded as -6.21%.

Turning to `O=[N+]([O-])c1ccc(N2CCNCC2)c(Cl)c1`, the “hERG current change (%, negative = inhibition) at 10uM” value is given as -6.48%.

On to `C=CCCC(=O)Nc1nc(C)c(-c2csc(Nc3ccc(Cl)cc3)n2)s1`, for which the “hERG current change (%, negative = inhibition) at 10uM” value turned out to be 14.9%.

For `Cn1c(=O)c2c(ncn2CCO)n(C)c1=O`, the “hERG current change (%, negative = inhibition) at 10uM” value is on record as 14.1%.

For `O=C1C(C=NCc2ccccn2)=C(O)c2ccccc21`, the “hERG current change (%, negative = inhibition) at 10uM” value is listed as -10.1%.

The values are drawn from article PMC4336329 (PLoS ONE, 2015).
